Results taken from PubChem BioAssay (NCATS).
“And” between values parts separate entries of the source, which are not always exact repeats. Identical values can stand only once. Inconclusive results, whose numbers are uncertain, are shown with a selection of clear calls. For some assays here: Where the call is inconclusive, the potency comes from a doubtful curve fit. The source made the active and inactive calls. Calls follow the shape of the dose curve; as a rule, active = well fitted curve in the direction sought with a large enough effect; inconclusive = small, poorly fitted or top-dose-only effect, or another doubt; inactive = no such curve, though single readings can be large; an effect the other way counts as inactive or inconclusive.

Key:
[1] = qHTS of pediatric cancer cell lines to identify multiple opportunities for drug repurposing: Primary screen for BT-37 cells (AID 1347094); also: potency is read from the fitted curve at half-maximal effect;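 as to activity change, negative = cytotoxic: plate controls were DMSO for no effect and bortezomib for full effect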
In short: (§1)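 Viability was measured as metabolically active cells after 48 hours of treatment, read by CellTiter-Glo luminescence. Compounds were tested at multiple final concentrations, giving concentration-response curves.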

[2] = qHTS of pediatric cancer cell lines to identify multiple opportunities for drug repurposing: Primary screen for NB-EBc1 cells (AID 1347095); also: potency is read from the fitted curve at half-maximal effect
In short: as §1

[3] = qHTS of pediatric cancer cell lines to identify multiple opportunities for drug repurposing: Primary screen for BT-12 cells (AID 1347101); also: nearly all actives have a fitted effect of over 25% in size; also: potency is read from the fitted curve at half-maximal effect;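 as to activity change, negative = cytotoxic: plate controls were DMSO for no effect and bortezomib positive control for full effect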
In short: (§2)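 Cells (500-1,000/well) rested 5 h, then received compounds for 48 h; metabolically active cells were measured by CellTiter-Glo luminescence. Final concentrations spanned up to 46 µM (MIPE, 11-point) or 0.59 nM-46 µM (NPC, 8-point) in primary screens, 11-point in follow-ups.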

[4] = qHTS of pediatric cancer cell lines to identify multiple opportunities for drug repurposing: Primary screen for MG 63 (6-TG R) cells (AID 1347105); conditions: MG 63 (6-TG R) viability, CellTiter-Glo, 48 h; activity change, negative = cytotoxic: at 46 µM (top of the series) unless noted; also: potency is read from the fitted curve at half-maximal effect; nearly all actives have a fitted effect of over 50% in size
In short: as §1

[5] = qHTS of pediatric cancer cell lines to identify multiple opportunities for drug repurposing: Primary screen for Rh30 cells (AID 1347107); also: potency is read from the fitted curve at half-maximal effect; nearly all actives have a fitted effect of over 75% in size
In short: as §2

[6] = Primary qHTS for small molecule stabilizers of the endoplasmic reticulum resident proteome: Secreted ER Calcium Modulated Protein (SERCaMP) assay (AID 1508630); conditions: SH-SY5Y GLuc-SERCaMP (Gaussia luciferase released on ER calcium loss) secretion, thapsigargin, luminescence; activity change, negative = inhibition: at 38.4 µM (top of the series); also: potency is read from the fitted curve at half-maximal effect; as to activity change, negative = inhibition: % is scaled to controls: 0 for no effect and ±100 for the full control effect
In short: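 GLuc-SERCaMP-expressing SH-SY5Y cells, pretreated 16 h with compound, are challenged with thapsigargin to empty ER calcium stores; after 4 h, coelenterazine is added directly to the medium and luminescence is imaged.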

[7] = Quantitative High-Throughput drug screen in 47 multiple myeloma cell lines against the NCATS MIPE library collection: KHM11_PLB cell viability assay (AID 1918962); conditions: KHM11 myeloma cell viability, CellTiter-Glo ATP luminescence, 48 h; viability, % of DMSO control: at 45.8 µM (top of the series); also: nearly all actives have a fitted effect of over 35% in size; also: potency is read from the fitted curve at half-maximal effect;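 as to viability, % of DMSO control: 0% = media only wells and 100% = DMSO treated cells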
In short: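 Primary qHTS used for cherry-picking: cells at 500/well, library compounds for 48 h (37C, 5% CO2), luminescent ATP assay.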

[8] = Quantitative High-Throughput drug screen in 47 multiple myeloma cell lines against the NCATS MIPE library collection: JIM1_ECACC cell viability assay (AID 1918964; also: potency is read from the fitted curve at half-maximal effect)
In short: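 Steps: seed 500 cells per well; pin-transfer MIPE 4.0 library; incubate 48 h at 37C, 5% CO2, humidified; add CellTiter-Glo, 5 min room temperature; read luminescence.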

[9] = Quantitative High-Throughput drug screen in 47 multiple myeloma cell lines against the NCATS MIPE library collection: SKMM1_PLB cell viability assay (AID 1919863); conditions: SKMM1 myeloma viability, CellTiter-Glo ATP, 48 h; viability: stronger effect = lower value; also: nearly all actives have a fitted effect of over 35% in size; also: potency is read from the fitted curve at half-maximal effect
In short: (§3)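 Plated at 500 cells per well, myeloma lines received MIPE 4.0 compounds by pin tool. Following 48 h culture at 37 °C, CellTiter-Glo luminescence gave viability relative to DMSO and media-only controls.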

[10] = tested on: MKL-2; experiment: qHTS assay to identify novel small-molecules to repurpose for Merkel cell carcinoma treatment (AID 1296009); conditions: MCC and control cell lines, CellTiter-Glo viability, 72 h; activity change, negative = cytotoxicity: at 46 µM (top of the series); also: potency is read from the fitted curve at half-maximal effect; nearly all actives have a fitted effect of over 60% in size
In short: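 After compound transfer in DMSO, plates were kept 72 hr at 37 degree celsius. Luminescent ATP signal from CellTiter-Glo served as viability measure, normalized against DMSO and no-cell controls.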

[11] = tested on: JEG-3; experiment: Primary qHTS to identify gynecologic anti-cancer compounds using libraries of approved drugs and bioactive compounds (AID 1345084); conditions: Gynecologic cancer cell panel viability, ATPlite luminescence, 48 h; series mostly up to 57.5 µM; also: nearly all actives have a fitted effect of over 55% in size; also: potency is read from the fitted curve at half-maximal effect; as to activity change, negative = cytotoxicity: % is scaled to controls: 0 for no effect and ±100 for the full control effect
In short: (§4)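 Measured: luminescence after ATPlite addition (15 min, RT). Exposure: 48 h, 37 C, 5% CO2.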

[12] = tested on: Tov112D; experiment: as above; conditions: Gynecologic cancer cell panel viability, ATPlite luminescence, 48 h; activity change, negative = cytotoxicity: at 57.5 µM (top of the series)
In short: as §4

[13] = Quantitative High-Throughput drug screen in 47 multiple myeloma cell lines against the NCATS MIPE library collection: L363_DSMZ cell viability assay (AID 1918984); conditions: L363 myeloma viability, CellTiter-Glo ATP luminescence, 48 h; viability (% of control): at 45.8 µM (top of the series); also: potency is read from the fitted curve at half-maximal effect; nearly all actives have a fitted effect of over 40% in size
In short: as §3

[14] = Quantitative High-Throughput drug screen in 47 multiple myeloma cell lines against the NCATS MIPE library collection: UTMC2_PLB cell viability assay (AID 1919868); conditions: CellTiter-Glo ATP luminescence, 48 h; viability (% of DMSO control): at 45.8 µM (top of the series); also: potency is read from the fitted curve at half-maximal effect; nearly all actives have a fitted effect of over 55% in size
In short: as §3

[15] = tested on: C33A; experiment: Primary qHTS to identify gynecologic anti-cancer compounds using libraries of approved drugs and bioactive compounds (AID 1345084); conditions: Gynecologic cancer cell panel viability, ATPlite luminescence, 48 h; series mostly up to 57.5 µM; also: nearly all actives have a fitted effect of over 55% in size; also: potency is read from the fitted curve at half-maximal effect; as to activity change, negative = cytotoxicity: % is scaled to controls: 0 for no effect and ±100 for the full control effect
In short: as §4

[16] = tested on: CASKI; experiment: as above; conditions: Gynecologic cancer cell panel viability, ATPlite luminescence, 48 h; activity change, negative = cytotoxicity: at 57.5 µM (top of the series)
In short: as §4

[17] = Drug repurposing screens with cells derived from glioblastoma tumor samples (AID 1345199); conditions: GBM patient neurospheres viability, ATP luminescence, 48 h; Potency: tumour line A unless noted; activity, negative = cell killing: at 46 µM (top of the series), tumour line A unless noted; also: potency is read from the fitted curve at half-maximal effect; nearly all actives have a fitted effect of over 40% in size
In short: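 Four patient lines of CD133+ GBM neurospheres were screened at several concentrations; hits were retested in those lines plus three slower-growing GBM lines, using 48-hour treatment and ATP-based viability.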

[18] = tested on: Zika virus NS2B-NS3 protease (linked construct); experiment: Primary screen NINDS Rhodamine qHTS for Zika virus inhibitors (AID 1347160); also: % is scaled to controls: 0 for no effect and ±100 for the full control effect; nearly all actives have a fitted effect of over 55% in size
In short: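 Purified linked NS2B-NS3 protease (NS2B hydrophilic domain joined to NS3 protease by flexible linker), 25 nM in 10 mM Tris-HCl pH 8.0, 0.01% Tween 20. Compounds titrated, 15 min preincubation at room temperature; 1.5 microM Rhodamine110 substrate, FITC fluorescence change over 15 min.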

[19] = tested on: Zika virus NS2B-NS3 protease; experiment: Primary screen GU AMC qHTS for Zika virus inhibitors (AID 1347154); also: potency is read from the fitted curve at half-maximal effect; nearly all actives have a fitted effect of over 70% in size
In short: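 Fluorogenic AMC-substrate cleavage by noncovalent NS2B-NS3 protease complex (25 nM, pH 8.0 Tris buffer with Tween 20) followed for 15 minutes at room temperature (~20% conversion). Percent inhibition from ex340/em450 signal change, fitted by 4-parameter Hill equation.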

[20] = molecular target: Phospholipid hydroperoxide glutathione peroxidase GPX4 (Homo sapiens) (UniProt P36969); experiment: Primary qHTS Assay for Inhibitors of Recombinant Selenoprotein Glutathione Peroxidase 4 (GPX4) (AID 1845192); also: potency is read from the fitted curve at half-maximal effect; nearly all actives have a fitted effect of over 65% in size
In short: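 NADPH consumption, followed by fluorescence at 340/450 nm between 0 and 15 min, reports GPX4 activity via coupled glutathione reductase (100 nM). Enzyme 200 nM was pre-exposed to compound 30 min; 0.5 mM cumene hydroperoxide and 1 mM GSH served as substrates.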
Tags tell the direction and shape of the fitted curve.

Sequence of UniProt P36969 (P36969 whole entry, looked up): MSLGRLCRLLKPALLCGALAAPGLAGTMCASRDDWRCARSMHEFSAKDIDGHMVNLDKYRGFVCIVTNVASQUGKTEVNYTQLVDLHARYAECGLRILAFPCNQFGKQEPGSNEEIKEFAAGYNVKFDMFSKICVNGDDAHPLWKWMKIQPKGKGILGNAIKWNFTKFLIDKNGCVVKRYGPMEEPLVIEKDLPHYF

Which Potency [1] does the source give for `CCOc1cc2ncc(C#N)c(Nc3ccc(OCc4ccccn4)c(Cl)c3)c2cc1NC(=O)C=CCN(C)C` here?
The Potency was active: 1090 nM.

And the Potency [2]?
The Potency was active: 332 nM.

And the Potency [3]?
Its Potency is active: 1.93 µM.

And the Potency [4]?
The Potency was inconclusive: 372 nM [cytotoxic, full curve].

What about the Potency [5] of the same compound?
Its Potency is inconclusive: 1660 nM [cytotoxic, partial curve].

What about the Potency [6] of the same compound?
Its Potency is “inactive”.

And the Potency [7]?
The Potency was active: 935 nM.

What about the Potency [8] of the same compound?
Its Potency is active: 418 nM.

What about the Potency [9] of the same compound?
Its Potency is inconclusive: 14800 nM [cytotoxic, partial curve, poor fit].

What about the Potency [10] of the same compound?
The Potency was inconclusive: 1.18 µM [inhibitor, full curve].

Which Potency [1] does the source give for `CCC(C(=O)OCCN(CC)CC)c1ccccc1` (stereo not drawn) here?
The Potency was “inactive”.

And the Potency [6]?
The Potency was “inactive”.

And the Potency [11]?
Its Potency is inconclusive: 3550 nM [rising, single point].

And the Potency [12]?
Its Potency is “inactive”.

For `COC(=O)Nc1nc2ccc(S(=O)c3ccccc3)cc2[nH]1` (stereo not drawn), which Potency [1] is on record?
Its Potency is inconclusive: 24300 nM [cytotoxic, single point].

And the Potency [2]?
The Potency was active: 473 nM and active: 8.33 µM.

What about the Potency [3] of the same compound?
The Potency was active: 2.46 µM and inconclusive: 19.3 µM [cytotoxic, partial curve].

What about the Potency [4] of the same compound?
Its Potency is active: 668 nM and active: 14.8 µM.

What about the Potency [7] of the same compound?
The Potency was inconclusive: 33200 nM [cytotoxic, single point].

And the Potency [8]?
The Potency was inconclusive: 1660 nM [rising, partial curve, poor fit].

What about the Potency [13] of the same compound?
Its Potency is inconclusive: 2350 nM [rising, partial curve, poor fit].

And the Potency [9]?
Its Potency is inconclusive: 6620 nM [cytotoxic, full curve].

And the Potency [14]?
The Potency was inconclusive: 93.5 nM [rising, full curve, poor fit].

What about the Potency [10] of the same compound?
The Potency was inconclusive: 376 nM [inhibitor, full curve] and inconclusive: 14.8 µM [inhibitor, partial curve, poor fit].

What about the Potency [15] of the same compound?
The Potency was inconclusive: 7940 nM [cytotoxic, partial curve].

What about the Potency [16] of the same compound?
The Potency was inconclusive: 4470 nM [cytotoxic, full curve].

What about the Potency [11] of the same compound?
Its Potency is inconclusive: 8910 nM [cytotoxic, full curve, poor fit].

And the Potency [17]?
Its Potency is inconclusive: 35500 nM [inhibitor, single point].

Which Potency [16] does the source give for `COc1ccccc1NC(=O)Nc1ccc2ccccc2c1` here?
The Potency was inconclusive: 31600 nM [cytotoxic, single point].

For `CS(=O)(=O)c1ccc(-c2cnc(N)c(C(=O)Nc3ccccc3)n2)cc1`, which Potency [2] is on record?
The Potency was inconclusive: 14800 nM [cytotoxic, partial curve].

And the Potency [3]?
Its Potency is “inactive”.

And the Potency [5]?
Its Potency is inconclusive: 18700 nM [cytotoxic, partial curve].

What about the Potency [18] of the same compound?
The Potency was “inactive”.

And the Potency [6]?
Its Potency is “inactive”.

What about the Potency [7] of the same compound?
Its Potency is inconclusive: 1.9 nM [rising, full curve, poor fit].

And the Potency [8]?
The Potency was inconclusive: 5260 nM [cytotoxic, full curve, poor fit].

And the Potency [13]?
The Potency was inconclusive: 1870 nM [cytotoxic, full curve].

What about the Potency [9] of the same compound?
Its Potency is inconclusive: 4690 nM [rising, full curve, poor fit].

And the Potency [14]?
The Potency was inconclusive: 1870 nM [cytotoxic, full curve, poor fit].

And the Potency [10]?
The Potency was inconclusive: 23.5 µM [inhibitor, partial curve, poor fit].

What does the source list for `O=C(CSc1nc2c(c(=O)n1-c1ccccc1)SCC2)Nc1ccc(-c2ccccc2)cn1`?
Potency [15]: inconclusive: 447 nM [cytotoxic, full curve]; Potency [16]: inconclusive: 355 nM [cytotoxic, full curve]; Potency [11]: inconclusive: 316 nM [cytotoxic, full curve]; Potency [12]: active: 158 nM

With `C=C1C(=O)O[C@@H]2C[C@@]3(C)CCC[C@H](C)C3=C[C@H]12` as the compound, how does the Potency [12] read?
Its Potency is “inactive”.

What does the source list for `Cc1ccccc1N1C(=O)c2cc(S(N)(=O)=O)c(Cl)cc2NC1C` (stereo not drawn)?
Potency [19]: inconclusive: 28.7 µM [inhibitor, partial curve] and inconclusive: 19.2 µM [inhibitor, partial curve]; Potency [6]: inactive and inconclusive: 2.24 µM [inhibitor, full curve, poor fit]; Potency [7]: inactive; Potency [8]: inconclusive: 1.9 nM [cytotoxic, full curve, poor fit]; Potency [13]: inconclusive: 16600 nM [cytotoxic, partial curve, poor fit]; viability [9]: inactive: 117%; Potency [14]: inconclusive: 2.3 nM [cytotoxic, full curve, poor fit]

With `COc1cc([C@@H](CC(=O)O)c2ccc(C)c(CN3C[C@@H](C)Oc4ccccc4S3(=O)=O)c2)cc2nnn(C)c12` as the compound, how does the Potency [20] read?
The Potency was inconclusive: 11400 nM [inhibitor, partial curve].
